PubChem BioAssay (NCATS)
The shares of active, inactive and inconclusive entries below differ from those in the screen. Potencies of inconclusive entries are left out as doubtful fits. The source made the active and inactive calls. The call rests on the fitted dose curve; in most records, active means well fitted curve in the direction sought with a large enough effect; inconclusive means small, poorly fitted or top-dose-only effect, or another doubt; inactive means no such curve, though single readings can be large; an effect the other way counts as inactive or inconclusive.

Biological target: Aldehyde dehydrogenase, mitochondrial (Homo sapiens) (UniProt P05091)
Experiment: qHTS for Inhibitors of the Aldehyde Dehydrogenase Family (ALDH2) Primary screen (AID 2061308); further: nearly all actives have a fitted effect of over 55% in size
Conditions: ALDH2 enzyme inhibition qHTS, 1536-well; series mostly up to 56 µM
Potency means the concentration at half of the fitted maximal effect; tags describe the fitted curve by direction and shape.

Row | Structure (SMILES) | Potency
1 | O=C(C[C@@H]1NCCC[C@H]1O)Cn1cnc2ccccc2c1=O | inconclusive [inhibitor, single point]
2 | C=C1[C@@H](O)[C@]2(O)OC[C@]34C2[C@]2(C)C(C[C@H]3OC(=O)[C@H](O)[C@@]14O)C(C)=CC(=O)[C@H]2O (stereo partly drawn) | inactive
3 | C=C1[C@@H](C)[C@H]2[C@H](Cc3ccccc3)NC(=O)[C@]23OC(=O)/C=C/C(=O)CCC[C@@H](C)C/C=C/[C@H]3[C@@H]1O | inconclusive [inhibitor, partial curve, poor fit]
4 | CC(=O)OC1CC(O)C2(C)C(CC(OC(C)=O)C3(C)C2CCC2(C)C(c4ccoc4)C(=O)C4OC423)C1(C)C (stereo not drawn) | inactive

Biological target: Retinaldehyde dehydrogenase 3 (Homo sapiens) (UniProt P47895)
Experiment: qHTS for Inhibitors of the Aldehyde Dehydrogenase Family (ALDH1A3) Validation screen (AID 2061312); further: nearly all actives have a fitted effect of over 45% in size
Conditions: ALDH1A3 enzyme inhibition qHTS validation, fluorescence; series mostly up to 42.4 µM

Row | Structure (SMILES) | Potency
5 | CC[C@@]1(O)C(=O)OCc2c1cc1n(c2=O)Cc2cc3ccccc3nc2-1 | inconclusive [inhibitor, full curve]
6 | CCOC(=O)Nc1ccc(NCc2c(C)cc(C)cc2C)cc1N | inconclusive [inhibitor, partial curve, poor fit]
7 | CN1CCC(c2c[nH]c3ccc(O)cc23)CC1 | inconclusive [inhibitor, partial curve]
8 | CCCCCn1cc(C(=O)C2C(C)(C)C2(C)C)c2ccccc21 | inconclusive [inhibitor, partial curve, poor fit]
9 | CCOc1ccccc1-n1c(C(C)N2CCN(C(=O)COc3ccc(Cl)cc3)CC2)nc2ccccc2c1=O (stereo not drawn) | inactive
10 | COC(=O)[C@@H](N)CCCN=C(N)N[N+](=O)[O-] | inactive
11 | OC(CNc1ccccc1)Cn1c2ccc(Br)cc2c2cc(Br)ccc21 (stereo not drawn) | inconclusive [inhibitor, full curve, poor fit]
12 | [Cl-].[Cl][Pt].[NH2-].[NH2-].c1ccncc1 | inconclusive [inhibitor, full curve]
13 | CP(=O)(O)C1=CCNCC1 | inactive
14 | CN[C@H]1[C@H](O)[C@H](O[C@@H]2[C@@H](O)[C@H](O[C@H]3O[C@H]([C@H](C)O)[C@@H](O)[C@H](O)[C@H]3N)[C@@H](N)C[C@H]2N)OC[C@@]1(C)O | inactive
15 | CNc1ccc2oc(C[C@H]3O[C@@]4(CC[C@H]3C)O[C@H](C(C)C(=O)c3ccc[nH]3)[C@H](C)C[C@H]4C)nc2c1C(=O)O (stereo partly drawn) | active: 14.1 µM
16 | CCCCCOc1cc2c(cc1-c1cc(/C=C/C(=O)O)ccc1O)C(C)(C)CCC2(C)C | inconclusive [inhibitor, partial curve]
17 | CCCCCn1cc(C(=O)c2cccc3ccccc23)c2ccccc21 | inconclusive [inhibitor, partial curve, poor fit]
18 | CC(C)(C)OC(=O)NC1[C@H]2CNC[C@@H]12 (stereo partly drawn) | inconclusive [inhibitor, full curve, poor fit]
